The text below walks through data of the RNAGym collection of RNA variant scans (doi:10.7554/elife.90254).

The source gives no read counts; variants with many changes may rest on few reads.

First the molecules themselves.
B1: LINE1-full (parent)
chain: UACGUAGGUGGUUUUCCCCUGAUAGUGCUAAGGGGGCCUGGAAGUUUGGACUGGGCAGAGCUCAACACAGCGUGGCAAAGUGGCUGUGGCUAGACUGCCUCUCUGGAUUCCUCGUCACUCAGCAGGGCAUCUCUGAGAGAAAUGCC

The variants in the data set derive from B1. Put plainly: self-cleavage, relative activity (ratio to wild type); higher = more cleavage; in vitro, sequencing; the parent is a self-cleaving ribozyme.
Consider U9A U39C C66U U112C A138G, for which the self-cleavage turned out to be 0.05.

For U45A G106A A138G, the self-cleavage worked out at 1.24.

With U15A G33A U39G, the self-cleavage was 0.48.

As to A42U U87A A94U, the self-cleavage is 0.09.

For A59U U62C A78G, the self-cleavage stood at 0.08.

U13C A138U A140G: the self-cleavage is 1.

In the case of U20C C113U A138G A142G, the self-cleavage was 1.63.

Consider U12G A121U A141G, for which the self-cleavage stood at 1.44.

As for U39C U91C A124G, the self-cleavage stood at 0.

With A77G A78G A92G, the self-cleavage was 0.

Consider A24G A43U U100C U109C, for which the self-cleavage amounted to 0.

In the case of U12C A124U G137A U143C, the self-cleavage came to 1.14.

Turning to A2U U14C A78G, the self-cleavage amounted to 0.43.

In the case of U46C A77U U85G A107G U108A A138G, the self-cleavage is 0.

With U100C G125A A140G, the self-cleavage amounted to 2.21.

Turning to A22C A50G A77U A129U, the self-cleavage came to 1.26.

Turning to C19U A22G U52A U119C, the self-cleavage was determined as 1.19.

As for U12G A64U A136G, the self-cleavage was found to be 0.7.

Regarding U13C G74A U109C U119C A129U, the self-cleavage stood at 0.81.

Regarding U62C U87C U102C, the self-cleavage stood at 0.

Regarding A30U A43G A117C U130C A136U, the self-cleavage was 2.4.

Turning to G34U A43G A65G G88A U112C, the self-cleavage came out at 0.03.

Turning to U5C U15C U20C G54U G74A U96C, the self-cleavage was 0.19.

Take U85C U87C C111U: the self-cleavage turned out to be 0.08.

On to A30G U45A G72U A78G, for which the self-cleavage amounted to 0.94.

For U14C U26C U81C, the self-cleavage came to 0.38.

As to U20A G97C U119C, the self-cleavage was determined as 1.01.

As for G10U U15A U62A A79G U109C A124G, the self-cleavage is 0.54.

For the variant U12C U14C U134A A140G, the self-cleavage worked out at 0.49.

In the case of U12C A43G C71G, the self-cleavage worked out at 0.6.

As to A2U A59U A77U G126A, the self-cleavage amounted to 0.77.

Turning to C17A A50G U102C, the self-cleavage was 0.77.

For the variant A2G C16U A59U A141G, the self-cleavage came to 0.95.

For U39C U81A A94G, the self-cleavage is 0.34.

For the variant G49A U85C U102A, the self-cleavage worked out at 0.2.

With U52C U104A A121U, the self-cleavage was 1.92.

On to A67G U73A U100C G114A U134C, for which the self-cleavage is 0.57.

With U102C G114A A138G A140G, the self-cleavage turned out to be 1.17.

U5C A42G A43G A59U A67U G75C: the self-cleavage came to 0.

U12G U14C C19U: the self-cleavage came to 1.43.

U26A U132C A140G: the self-cleavage was 1.28.

With U45C A77G A78U U87C U112A A117U, the self-cleavage is 0.25.

With G41U C99U A121U A136G, the self-cleavage amounted to 0.51.

Consider U13C U52C G53U A121G, for which the self-cleavage stood at 1.3.

On to G27A A59U U104C, for which the self-cleavage is 0.59.

For U73C U112C A141G, the self-cleavage was determined as 2.21.

G25A A50G U143C: the self-cleavage is 0.75.

Consider U13C U45C A117G U132C, for which the self-cleavage was 0.

For C3U U12G A138G, the self-cleavage stood at 0.6.

G35A A42G A64G: the self-cleavage worked out at 0.15.

U73C A78G U104A: the self-cleavage turned out to be 1.48.

On to A50U A64U U132C, for which the self-cleavage stood at 0.21.

For the variant U13C U100C U108C U143G, the self-cleavage stood at 2.3.

For the variant U14C A42G U108C U115A A129G A140U, the self-cleavage turned out to be 1.02.

As to A2U G70A A107G A117U U132A, the self-cleavage stood at 0.13.

Regarding U26C U47A G58A G75A, the self-cleavage is 0.03.

Turning to U14C U52C C61U, the self-cleavage was 0.1.

On to A59G U87G A141C, for which the self-cleavage came out at 0.22.

As to U26C A42G A64G A141G, the self-cleavage is 0.35.

Regarding A57G C118U A129G, the self-cleavage was determined as 0.9.

A67G A77G A107G: the self-cleavage came to 0.

With U12C A78G G80A A92G U104A, the self-cleavage stood at 0.28.

In the case of U14C A43G U112C, the self-cleavage was 0.34.

On to A43G U73A U112C A117G U134C, for which the self-cleavage came to 1.41.

Turning to U12C A42G A65G, the self-cleavage came to 0.24.

Regarding U26A U39C C113A, the self-cleavage worked out at 0.76.

For C63U U115C A140G, the self-cleavage is 0.52.

On to A30U A59C A67G A124U, for which the self-cleavage turned out to be 0.33.

On to U13C U20G U47A A50G A67U U85C, for which the self-cleavage was found to be 0.28.

For U20A U23C C37U A50G U73C U132C, the self-cleavage worked out at 0.73.

As to U73C A78G U112C, the self-cleavage turned out to be 0.

Take A59G U100C A129G: the self-cleavage amounted to 0.

In the case of A30G U39C U45C C131U U134C G135U, the self-cleavage turned out to be 0.98.

Take A42G A43G A121G: the self-cleavage came to 0.44.

For the variant U12A U20C A31G C90U U96G, the self-cleavage worked out at 0.

As for A117G U130A A136G, the self-cleavage turned out to be 1.53.

U9A A67G U85C: the self-cleavage is 0.44.

G7U U15C C61U U134A A142G: the self-cleavage turned out to be 0.04.

With C16U A78U U100C A140C, the self-cleavage turned out to be 2.19.

For the variant U20A G34A U108C A142G, the self-cleavage stood at 1.15.

For U9A U73C A78G U109C, the self-cleavage was 0.

On to A50G A57C A142G, for which the self-cleavage is 0.

On to A2U A43G A78G A140G, for which the self-cleavage came out at 0.

On to U15C U47G U112C, for which the self-cleavage turned out to be 1.15.

U13C A24G U112A: the self-cleavage came to 0.48.

On to U39C U62C A92U, for which the self-cleavage was found to be 0.17.

In the case of U14C U52A A78G A129U, the self-cleavage was 1.44.

Consider U13G A57G A69C U130C, for which the self-cleavage amounted to 0.31.

For the variant A50U U112A U115C, the self-cleavage is 1.45.

For U73C U85G A129C U134A, the self-cleavage is 0.68.

On to U13C A50G U87C G127A G139U, for which the self-cleavage came to 0.69.

Consider A77G U115A A138G, for which the self-cleavage is 2.49.

Regarding A31G U47C A64G U108C G114U, the self-cleavage came out at 0.

On to G54A U87C A121U A142G, for which the self-cleavage was 0.08.

U5A U109A U115C A142G: the self-cleavage is 0.74.

In the case of U12C G44A U62C, the self-cleavage stood at 0.18.

For the variant A24G U47A C131U A138G, the self-cleavage was 0.86.

As to A2G C19A U143A, the self-cleavage was determined as 0.52.

For the variant A69G U85C U134C, the self-cleavage was 0.97.

Take A79G U81A A117G: the self-cleavage was found to be 2.21.

With U9C A31C U73A U81C U130A U134A, the self-cleavage is 1.84.

For A50U U115A C146U, the self-cleavage was found to be 0.6.

Consider U1C U20A A43C A140U, for which the self-cleavage was 1.26.

Turning to U47C A69U A79G, the self-cleavage is 0.07.

For the variant U26A A42G A140G, the self-cleavage came to 0.2.

Regarding A69G U132A U134G, the self-cleavage came out at 0.4.

For the variant U119C G135U U143C, the self-cleavage is 0.04.

With G36C U45C A57U G72A A78G, the self-cleavage stood at 0.02.

Consider U13C U15A A77G A79G U109C, for which the self-cleavage came out at 0.77.

On to U1C U46A A69G A117G A140G, for which the self-cleavage was 0.24.

As to U20C A64G A92U A121C C123U A140C, the self-cleavage is 0.4.

Regarding A77G U81C U115C U132A C146U, the self-cleavage turned out to be 0.

Consider U15C A22U C38U A65G U108A, for which the self-cleavage worked out at 0.05.

Consider A6G U9A U12C U62C, for which the self-cleavage turned out to be 0.19.

Consider A94G U115A U132C, for which the self-cleavage amounted to 0.8.

Take U15A A138G A141G: the self-cleavage worked out at 2.1.

On to U1G U104C A142G, for which the self-cleavage is 0.9.

On to A42G A43G A59U A107G C120U, for which the self-cleavage came out at 1.4.

As for U1A A67G U119C, the self-cleavage was determined as 1.53.

Turning to U1A A67G C131A, the self-cleavage worked out at 0.64.

Turning to A43G U91C U130C, the self-cleavage is 0.56.

Take U12C U15C U26C A79G G122A: the self-cleavage is 1.53.

With A67G A92G G105A A142G, the self-cleavage came to 0.26.

With U96C U115C A140G, the self-cleavage came to 0.22.

With U73C A121G A138G, the self-cleavage amounted to 1.31.

Take U46C A64U U85G: the self-cleavage was 0.42.

With U12G U15C A30U G72A U81C U102C C111U A136G, the self-cleavage was determined as 0.42.

Regarding A69U A79G U81C A124G, the self-cleavage turned out to be 0.

Consider U9C U14C G70U, for which the self-cleavage turned out to be 0.18.

U109C U115C A136G: the self-cleavage is 0.89.

As for U15C A65G U132C, the self-cleavage was 0.

As to U12G A57U U130A, the self-cleavage was determined as 0.17.

Regarding C84U U85C A138G, the self-cleavage is 0.05.

On to U15C G72A U115C, for which the self-cleavage was found to be 1.96.

In the case of A107U U119C A121U A140G, the self-cleavage came to 2.48.

As for U5C A79G A138G A142G, the self-cleavage was determined as 2.09.

With U115A A129G C146U, the self-cleavage is 1.94.

As to U9C U13C U20A U81C U108C, the self-cleavage was 0.

As to U45C A67G A79U, the self-cleavage was determined as 0.83.

For U26A A64G U109C, the self-cleavage stood at 0.41.

Take U9C G32A U73C: the self-cleavage is 1.14.

Turning to U14C G34A A79G U104C, the self-cleavage is 1.23.

With U13A C66U C120U, the self-cleavage was 0.02.

For G41A A65G G75U C120A C131U, the self-cleavage came out at 0.03.

For the variant A2G U52C U119C, the self-cleavage turned out to be 1.72.

Turning to U13C U87A U134C A136G, the self-cleavage was 0.14.

In the case of C71U U91C A94G A124G, the self-cleavage turned out to be 0.

With G27A G34A U119C, the self-cleavage was found to be 0.9.

For the variant U13C U15C U26A, the self-cleavage was 1.5.

On to U47C A65G U73C, for which the self-cleavage was 0.

In the case of U20C G55U C128U, the self-cleavage was found to be 0.26.

For A42U A59G U112C, the self-cleavage was 0.12.

Consider C18U G36C U47C U109C U119C, for which the self-cleavage is 1.72.

Consider A42U U81A U96C U102C U115C U143A, for which the self-cleavage was determined as 0.

In the case of U47C U130C A138G, the self-cleavage was determined as 1.61.

Turning to C19U U119C C145U, the self-cleavage came out at 1.91.

As for A117U A121G U143C, the self-cleavage amounted to 1.31.

As for U14A U46C A92U, the self-cleavage is 0.63.

Turning to G49A A64U U134C, the self-cleavage came to 0.38.

In the case of U29C A69G G74A U102C, the self-cleavage was 0.78.

Regarding A24G A77U U143C, the self-cleavage is 1.14.

As for U46C A107G A142G, the self-cleavage stood at 2.55.

As for U12G U87C U96C U132C, the self-cleavage came to 0.

With C19U U47A A64U A78G U81C U102C, the self-cleavage was 0.

With U62A U81A U104A, the self-cleavage worked out at 0.02.

Regarding A57U U87A A94U, the self-cleavage was determined as 0.03.

As for U47C A77G A78G U109A, the self-cleavage came out at 0.
